The campaign covered roughly 48,000 compounds. About 550 (1.1%) were called active. Inconclusive results (about 4%) are left out. Cut-off read from the data, not from the text of the source: active = potency below about 15 µM; inconclusive = mostly about 16 µM to 33 µM; inactive = weaker than that. The list shows a part of the results.
molecular target: Lysosomal acid glucosylceramidase (Homo sapiens) (UniProt P04062); assay: Glucocerebrosidase; details: purified enzyme, resorufin glucoside fluorescence (screen aimed at inhibitors), 20 min;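 note: the screen sought inhibitors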
UniProt P04062, sequence (P04062 whole entry, looked up): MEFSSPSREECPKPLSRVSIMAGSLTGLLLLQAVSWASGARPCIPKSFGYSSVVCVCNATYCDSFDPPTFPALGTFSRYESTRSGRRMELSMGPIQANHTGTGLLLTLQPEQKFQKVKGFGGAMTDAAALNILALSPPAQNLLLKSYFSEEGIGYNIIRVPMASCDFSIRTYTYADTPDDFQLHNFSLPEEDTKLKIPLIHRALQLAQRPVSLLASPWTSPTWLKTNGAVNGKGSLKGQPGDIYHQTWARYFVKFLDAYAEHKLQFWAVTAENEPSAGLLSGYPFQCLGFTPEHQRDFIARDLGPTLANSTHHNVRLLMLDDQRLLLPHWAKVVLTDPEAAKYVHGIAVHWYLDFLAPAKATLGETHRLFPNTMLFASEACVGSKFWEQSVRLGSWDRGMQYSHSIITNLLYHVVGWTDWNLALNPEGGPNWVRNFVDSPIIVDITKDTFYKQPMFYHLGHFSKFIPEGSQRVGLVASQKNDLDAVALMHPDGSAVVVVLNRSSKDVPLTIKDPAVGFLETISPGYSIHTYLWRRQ
How it was run: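 Normal human glucocerebrosidase (0.2 nM final) was assayed with resorufin β-D-glucopyranoside (30 uM final) in 50mM citric acid/KH2PO4, 10mM sodium taurocholate, 0.01% tween-20, pH 5.9. Compounds were titrated; fluorescence (Ex 548, Em 600) read after 20 min at RT.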
Potency is the fitted concentration of half-maximal effect.

Potency, inactive:
COC(=O)Nc1c(-c2ccccc2)nc2ccc(C)cn12 > 76.9 µM
Cc1[nH]c2ccccc2c1/C=N/n1cnnc1 > 76.9 µM
CCCS(=O)(=O)N1CCCC(C(=O)NCCN2CCCCC2C)C1 (configuration not stated) > 76.9 µM
CC(C)NS(=O)(=O)c1ccc(CCC(=O)N2CCOCC2)cc1 > 76.9 µM
COC(=O)c1[nH]c2cc(OC)ccc2c1N > 76.9 µM
CN1CCN(CCCNC(=O)c2cc3c(=O)oc4ccccc4c3s2)CC1 > 76.9 µM
O=C(NCCNC(=O)C(c1ccccc1)c1ccccc1)c1ccco1 > 76.9 µM
O=C(Cn1nnc(-c2ccccc2Cl)n1)N1CCN(S(=O)(=O)c2ccc(Cl)cc2)CC1 > 76.9 µM
COc1nnc(OC)c2ccccc12 > 76.9 µM
CCCS(=O)(=O)N1CCN(C(=O)c2ccccc2F)CC1 > 76.9 µM
COc1ccc(CC(NC(C)=O)C(=O)NC2CCN(c3nc(C)cc(C)c3C#N)CC2)c(OC)c1 (configuration not stated) > 76.9 µM
CN(C)c1ccc(/C=c2\sc3nc(-c4ccccc4)nn3c2=O)cc1 > 76.9 µM
CCOCCn1c(CN(Cc2ccccc2)Cc2ccccc2)nc2c1c(=O)[nH]c(=O)n2C > 76.9 µM
COc1cccc(OCCSc2nnc3sc4ccccc4n23)c1 > 76.9 µM
O=C(Nc1nc2c(s1)CCc1ccccc1-2)c1ccco1 > 76.9 µM
COc1ccccc1CN1CC(C(=O)NCc2cccnc2)CC1=O (configuration not stated) > 76.9 µM
COc1ccc(CC(=O)Nc2ccc3c(c2)CCC3)cc1S(=O)(=O)N1CCOCC1 > 76.9 µM
CCOc1ccc(N2C(=O)c3cccnc3C2Nc2ccc(C)cc2)cc1 (configuration not stated) > 76.9 µM
CCS(=O)(=O)N1CCN(C2CCC(C)CC2)CC1 (configuration not stated) > 76.9 µM
O=C(c1ccc2c(c1)OCO2)N1CCN(c2ccc(F)cc2)CC1 > 76.9 µM
CC(=O)NCCc1cc2cc(C)c(C)cc2[nH]c1=O > 76.9 µM
C=CCOC(=O)CCC(=O)Nc1cc(OC)nc(OC)n1 > 76.9 µM
CCCC(C(=O)c1ccccc1)n1cncn1 (configuration not stated) > 76.9 µM
CCOC(=O)c1c(C)[nH]c(C(=O)COc2ccc3c(c2)OCO3)c1C > 76.9 µM
CC1(C)NC(=O)N(CC(O)CNC23CC4CC(CC(C4)C2)C3)C1=O (configuration not stated) > 76.9 µM
O=C(C1CCCN(S(=O)(=O)c2ccc(F)cc2)C1)N1CCCC1 (configuration not stated) > 76.9 µM
O=C(NC1CCCC1)c1ccc2nc(-c3ccco3)c(-c3ccco3)nc2c1 > 76.9 µM
CCOc1ccc(C(=O)NC2CCN(C(=O)NCc3ccccc3)CC2)cc1 > 76.9 µM
Cc1nc2c(n1O)CCC/C2=N\O > 76.9 µM
Nc1sccc1C(=O)c1ccc(Cl)cc1 > 76.9 µM
Cc1ccc(Cn2c(NC(=O)c3ccco3)nc3ccccc32)cc1 > 76.9 µM
Cc1cccc(NC(=O)c2cc(NC(=O)C3CCCCC3C(=O)O)ccc2Cl)n1 (configuration not stated) > 76.9 µM
CCCNc1nc2c(c(=O)[nH]c(=O)n2C)n1CCC(C)C > 76.9 µM
COc1nonc1NC(=O)CSc1nc2ccccc2[nH]1 > 76.9 µM
CCOC(=O)C1[C@H]2C(=O)N(CCCOC)C[C@]23C=C[C@H]1O3 (some centres not stated) > 76.9 µM
O=S1(=O)C=CC(Nc2cccc(Cl)c2)C1 (configuration not stated) > 76.9 µM
O=C(O)CCCCCNC(=O)CCn1cnc2ccccc2c1=O > 76.9 µM
C=C(C)c1nc(N)nc(N)n1 > 76.9 µM
CNc1nc(Oc2ccccc2C(=O)OC)nc(SC)n1 > 76.9 µM
CCOc1ccc(NC(=O)N2CC=C(n3c(=O)[nH]c4ccccc43)CC2)cc1 > 76.9 µM
CCc1nc(CNC(=O)c2cc(OC)c(OC)c(OC)c2)no1 > 76.9 µM
O=S(=O)(NCC1CCN(S(=O)(=O)c2ccccc2)CC1)c1ccccc1 > 76.9 µM
CC1CCN(C(=O)Cn2c(=O)oc3ccccc32)CC1 > 76.9 µM
CCOC(=O)c1ccc(-n2c(-c3ccco3)nc3ccccc3c2=O)cc1 > 76.9 µM
COc1ccc(-c2cc(C(=O)N3CC4(C)CC3CC(C)(C)C4)no2)cc1 (configuration not stated) > 76.9 µM
CCOC(=O)N1CCN(C(=O)C2CCN(S(=O)(=O)c3ccc(Br)s3)CC2)CC1 > 76.9 µM
CCC(=O)c1ccc(OCC(O)Cn2cnc3ccccc32)cc1 (configuration not stated)
CC(C)=C(NC(=O)c1ccco1)C(=O)NCCc1nc2ccccc2[nH]1 > 76.9 µM
CCOC(=O)c1cnn(-c2sc(C(=O)OCC)c(C)c2C(=O)OCC)c1N > 76.9 µM
Cc1cccc2cc(CN(Cc3ccc4c(c3)OCO4)Cc3nnnn3C3CCCC3)c(=O)[nH]c12 > 76.9 µM
CC(=O)Nc1ccc(S(=O)(=O)NCC2CCC(C(=O)NCCCN3CCCC3=O)CC2)cc1 (configuration not stated) > 76.9 µM
O=C(O)c1ccccc1C(=O)c1cccs1 > 76.9 µM
CCOc1nc(-c2ccc(OC)cc2)ccc1-c1noc(-c2ccncc2)n1 > 76.9 µM
CCN(CC(N)=O)S(=O)(=O)c1ccc(Br)cc1 > 76.9 µM
COC(=O)C1=C(N)Oc2cc(C)n(C)c(=O)c2C1c1ccc(Cl)cc1 (configuration not stated) > 76.9 µM
NC(=O)COc1ccc(C2c3c(oc4ccccc4c3=O)C(=O)N2CC2CCCO2)cc1 (configuration not stated) > 76.9 µM
CCn1c(CSc2ncccn2)nnc1SCC(=O)N1c2ccccc2CC1C (configuration not stated) > 76.9 µM
CCS(=O)(=O)n1nc(-c2ccccc2)nc1N > 76.9 µM
CCOC(=O)C1=C(C)NC(C)=C(C(=O)OCC)C1C(=O)OCC(=O)N1CCc2ccccc2C1 > 76.9 µM
O=C(CSc1nnnn1-c1ccc2c(c1)OCO2)NCc1cccs1 > 76.9 µM
CCc1nnc(NC(=O)CSc2nnc(-c3cccnc3)n2CCc2ccccc2)s1 > 76.9 µM
Cc1cc(C)cc(NC(=O)C2CCCC2)c1 > 76.9 µM
Cc1ccc(S(=O)(=O)N2CCN(S(=O)(=O)c3ccc4c(c3)OCCO4)CC2)cc1 > 76.9 µM
Cc1cc(OC(=O)CNC(=O)OC(C)(C)C)c2c(C)cc(=O)oc2c1 > 76.9 µM
CC(C)CNS(=O)(=O)c1ccc(CCC(=O)NCC2CCCO2)cc1 (configuration not stated) > 76.9 µM
CCOC(=O)c1cnn2c(C)cc(-c3ccccc3)nc12 > 76.9 µM
COc1cccc(-c2cnc(NCc3cc(Cl)ccc3O)n2C)c1
NS(=O)(=O)c1ccc(-n2nncc2C23CC4CC(CC(C4)C2)C3)cc1 > 76.9 µM
Cn1c(C(=O)O)c(CC(=O)NCc2cccnc2)c2ccccc21 > 76.9 µM
CC(C)Cn1nc(NS(=O)(=O)c2ccccc2)c2cc3ccccc3nc21 > 76.9 µM
COc1ccc(CNC(=O)Nc2ccc(C)cc2)cc1 > 76.9 µM
COC(=O)CN1C(=O)C2(OCCCO2)c2ccccc21 > 76.9 µM
CN1CC(=O)N(CC(=O)Nc2ccc(F)cc2)c2ccccc2C1=O > 76.9 µM
O=C(CSc1nnc(-c2cccnc2)o1)Nc1ccccn1 > 76.9 µM
O=C(Cn1ncc2c(=O)oc3ccccc3c21)N1CCN(c2ccccn2)CC1 > 76.9 µM
O=C(Nc1ccc(Oc2ccc(Cl)cc2)cc1)c1ncn[nH]1 > 76.9 µM
COc1cc(NC(=O)c2ccc(Br)o2)ccc1NC(=O)C(C)C > 76.9 µM
Cc1nc(S(=O)(=O)N2CCOCC2)c(C#N)c(C)c1Cl > 76.9 µM
COc1ccc(-c2nnc(SCC#N)o2)cc1 > 76.9 µM
CCCc1cc(=O)oc2cc(OCC(=O)Nc3cc(C)on3)ccc12 > 76.9 µM
O=C(O)C1CCCCC1C(=O)NCCc1c[nH]c2ccccc12 (configuration not stated) > 76.9 µM
CC(=O)c1ccc(NC(=O)CCn2c(=O)oc3ccccc32)cc1 > 76.9 µM
CCOc1ccc(N2C(=O)CC(Sc3nccc(C)n3)C2=O)cc1 (configuration not stated) > 76.9 µM
Cc1ccc(C)c(OCCCC(=O)Nc2ccc(N3CCOCC3)cc2)c1 > 76.9 µM
CCOCCOCN(C#N)c1nc(OC)nc(N(C)C)n1 > 76.9 µM
CC(C(=O)NC1=NCCS1)(C(F)(F)F)C(F)(F)F > 76.9 µM
COc1ccccc1NC(=O)CSc1nnc(C2CCCCC2)n1C > 76.9 µM
CCCN1CCN(CCCNC(=O)C2CCN(c3nnc(-n4cccc4)s3)CC2)CC1 > 76.9 µM
CCOC(=O)c1c(NC(=O)CSc2nnc(C)c(=O)[nH]2)sc2c1CCC2 > 76.9 µM
Cc1ccnc(SCC(=O)Nc2sc3c(c2C#N)CCCC3)n1 > 76.9 µM
COc1ccc(C(=O)COC(=O)CN2C(=O)NC(C)(C)C2=O)cc1OC > 76.9 µM
O=S(=O)(c1ccc2ccccc2c1)n1cnc2ccccc21 > 76.9 µM

— PubChem BioAssay AID360 (National Center for Advancing Translational Sciences (NCATS), 2006)
